Source: PubChem BioAssay AID624296 (National Center for Advancing Translational Sciences (NCATS), 2012)
Screen size: about 350,000 compounds; about 9,900 (2.8%) were called active. The shares of active, inactive and inconclusive entries below differ from those in the screen. The call rests on the fitted dose curve; in most records, active means well fitted activation curve with a large enough effect; inconclusive means small, poorly fitted or top-dose-only effect; inactive means no such curve, though single readings can be large or run the other way. Potencies of inconclusive entries are left out as doubtful fits.

Experiment: A quantitative high throughput screen for small molecules that induce DNA re-replication in MCF 10a normal breast cells. Further: nearly all actives have a fitted effect of over 50% in size.
Conditions: MCF 10A DNA re-replication, Hoechst nuclear intensity, 48 h; series mostly up to 46.1 µM
Potency means the concentration at half of the fitted maximal effect; tags describe the fitted curve by direction and shape.

Row | SMILES | Potency
1 | COc1ccc(OC)c(C2C3=C(CCCC3=O)Nc3c2c(=O)n(C)c(=O)n3C)c1 (centres undefined) | inactive
2 | Cc1ccc(C23CC4CC(CC(C(=O)N5CCOCC5)(C4)C2)C3)cc1 | inconclusive [activator, single point]
3 | Cn1nc(-c2ccc(Cl)cc2)c2cc(C(=O)NCc3ccco3)sc21 | inconclusive [activator, single point]
4 | COc1ccccc1-c1cc(C(=O)Nc2cc(C)nn2-c2ccccc2)no1 | active: 1.3 µM
5 | CC(C)c1c(C(=O)N/N=C/c2ccccc2OCc2c(F)cccc2Cl)nnn1-c1nonc1N | inconclusive [activator, single point]
6 | COc1ccc(Nc2oc(-c3ccccc3Cl)nc2C#N)cc1 | active: 2.59 µM
7 | Cc1ccccc1C(=O)NC(CC(C)C)C(=O)Nc1ccc(F)c([N+](=O)[O-])c1 (centres undefined) | inconclusive [activator, partial curve]
8 | CCN(CC)CCCNC(=S)N1CCN(c2nc(-c3ccc(F)cc3)cs2)CC1 | inconclusive [activator, partial curve, poor fit]
9 | CCC(C)C(NC(=O)C(CC(C)C)NC(=O)C(CO)NC(=O)C1CCC(=O)N1)C(=O)OC (centres undefined) | inconclusive [activator, single point]
10 | COc1cc(/C=C/c2cc(C(=O)O)c3ccccc3n2)cc(OC)c1O | inconclusive [activator, single point]
11 | CCNC(=S)N=Nc1c(O)[nH]c2ccc(C(C)C)cc12 | inactive
12 | C/C(=N\Nc1ncc(Cl)cc1Cl)c1ccc(S(=O)(=O)NCc2ccco2)cc1 | inconclusive [activator, single point]
13 | c1ccc(Cc2nn3c(COc4ccccc4)nnc3s2)cc1 | inactive
14 | Cc1ccc(C)c(/C=N/Nc2ccccn2)c1 | inactive
15 | CCc1nnc(NC(=O)CCC(=O)N2CCN(C3CCCCC3)CC2)s1 | inconclusive [activator, single point]
16 | CCOc1cccc(-c2c(C(=O)N/N=C/c3sccc3C)nnn2-c2nonc2N)c1 | inconclusive [activator, single point]
17 | Cc1cc(C)nc(-n2nc(C)cc2NC(=O)CNC2CCCCC2)n1 | inactive
18 | COc1ccccc1CNS(=O)(=O)c1cc(C(=O)N(C)Cc2cccnc2)c(Cl)cc1Cl | inactive
19 | C(=N\Nc1nc2ccccc2[nH]1)/c1ccncc1 | inconclusive [activator, single point]
20 | Oc1c(Cl)cc(Oc2cc(Cl)c(O)c(CN3CCOCC3)c2)cc1CN1CCOCC1 | inconclusive [activator, single point]
21 | CCCOc1ccc(NC(=O)C(=O)NCCCn2ccnc2)cc1 | inconclusive [activator, single point]
22 | CCN(CCNC(=O)C1CCN(S(=O)(=O)c2c(C)noc2C)CC1)c1ccccc1 | inconclusive [activator, single point]
23 | OC1C2CCC(C2)C1CN1CCOCC1 (centres undefined) | inactive

Row | SMILES | Potency
24 | COC(=O)c1ccc(SCC(=O)N2CCC(C)CC2)c([N+](=O)[O-])c1 | inactive
25 | CCOc1ccc2nc(SCC(=O)NCc3ccccc3)[nH]c2c1 | inconclusive [activator, partial curve, poor fit]
26 | CN(CCOc1ccccc1)C(=S)Nc1ccc(OC(F)F)cc1 | inactive
27 | CCN(CC)C(=O)CN1C(=O)/C(=C/c2ccccc2)SC1=S | inconclusive [activator, single point]
28 | Cn1nc(C(F)(F)F)c(/C=N/OC(=O)c2ccccc2)c1SCc1ccc(Cl)cc1 | inconclusive [activator, partial curve, poor fit]
29 | CN(C)c1ccc(C2C=C(c3ccc(Cl)cc3OC(F)F)Nc3ncnn32)cc1 (centres undefined) | active: 4.11 µM
30 | O=C(Nc1ccc(S(=O)(=O)Nc2cnc3ccccc3n2)cc1)c1ccc([N+](=O)[O-])cc1Cl | inconclusive [activator, partial curve, poor fit]
31 | Cc1ccc(N(C)C(=O)c2cc(S(=O)(=O)N3CCc4ccccc43)cn2C)cc1 | inconclusive [activator, partial curve, poor fit]
32 | CCN(CC)c1ccc(CNc2ccc3c(c2)ncn3CC)cc1 | inactive
33 | COc1ccc(S(=O)(=O)N2CCCCC2)cc1NC(=O)Cc1sc(C)nc1-c1ccc(F)cc1 | inactive
34 | Cc1cccc(C)c1NC(=O)CSc1nc(-c2ccco2)cc(C(F)(F)F)n1 | inactive
35 | O=C(O)c1cc(O)ccc1-c1ccc(O)cc1 | inactive
36 | CC1CCN(S(=O)(=O)N2CCCC(C(=O)NCc3ccc(F)cc3)C2)CC1 (centres undefined) | inactive
37 | Cn1cnc(Sc2ncnc3nc[nH]c23)c1[N+](=O)[O-] | inconclusive [activator, partial curve, poor fit]
38 | O=S(=O)(C/C(=C/CO)S(=O)(=O)c1ccccc1)c1ccccc1 | active: 0.82 µM
39 | CCc1nonc1NC(=O)c1oc2ccc(F)cc2c1C | inactive
40 | COc1cccc(NC(=O)Nc2nnc(-c3ccccc3SCc3ccccc3)s2)c1 | inactive
41 | O=C(NC1CCN(Cc2ccccc2)CC1)c1cccc(S(=O)(=O)Nc2ccc(F)cc2)c1 | inconclusive [activator, partial curve, poor fit]
42 | COc1ccc(-c2nnc(SC)nc2-c2ccc(OC)c([N+](=O)[O-])c2)cc1[N+](=O)[O-] | inconclusive [activator, partial curve, poor fit]
43 | O=C(Nc1cccc(Cl)c1)Nc1ccc(Br)cc1F | inconclusive [activator, single point]
44 | CCOC(=O)c1c(NC(=O)CCS(=O)(=O)c2ccccc2)sc2c1CC(C)(C)NC2(C)C | active: 18.4 µM
45 | COC(CNC(=O)c1cn(C)c2ccc(S(=O)(=O)N(C)C3CCCCC3)cc2c1=O)OC | inconclusive [activator, single point]
46 | Cc1cc(C)n(CCCN2CCC(C(=O)Nc3cccc(-c4cccc(F)c4)c3)CC2)n1 | inconclusive [activator, single point]

Row | SMILES | Potency
47 | CCCCC[n+]1ccn(-c2nc3ccccc3nc2[N-]S(=O)(=O)c2ccc(C)cc2)c1 | inconclusive [activator, single point]
48 | CCOC(=O)C1=C(C)Nc2ccccc2N=C1NC(=O)C1CCN(C(=O)c2ccccc2C)CC1 | inactive
49 | COc1cccc(C(=O)NCCSc2c(C)[nH]c3ccccc23)c1OC | inconclusive [activator, partial curve, poor fit]
50 | Cc1cccc(NC(=O)c2cc([N+](=O)[O-])ccc2NCC2CCCO2)n1 (centres undefined) | inactive
51 | Cc1onc(-c2ccccc2Cl)c1C(=O)NC(=S)Nc1ccc(C(C)C)cc1 | inactive
52 | Cc1cc(NC(=O)COC(=O)c2c(C)noc2C)ccc1Br | inactive
53 | CCN(CC)CCC(c1cc(OC)c(OC)c(OC)c1)c1c(O)cc(OC)cc1OC (centres undefined) | inconclusive [activator, full curve, poor fit]
54 | CCOC(=O)C(Nc1ccc2ccccc2c1)C(=O)OCC | active: 4.61 µM
55 | COc1c(C)cc(C(=O)C2CCCN(C(=O)c3ccc4cc[nH]c4c3)C2)cc1C (centres undefined) | inactive
56 | Cc1nn2c(NCc3cccnc3)c3c(nc2c1-c1ccccc1)CCC3 | inconclusive [activator, partial curve, poor fit]
57 | O=S(=O)(c1ccc(Br)s1)N1CCC(Cc2ccccc2)CC1 | inconclusive [activator, partial curve, poor fit]
58 | FC(F)(F)c1nnc2ccc(NCn3nnc4ccccc43)nn12 | inconclusive [activator, single point]
59 | Cc1ccsc1-c1nc(C(N)=O)c2[nH]c(=O)n(-c3ccc(Cl)cc3)c2n1 | inconclusive [activator, full curve, poor fit]
60 | COCc1cc(C)nc2sc(C(=O)Nc3ccc(C(=O)OC)cc3)c(N)c12 | inconclusive [activator, single point]
61 | COC(=O)c1cn(CCOc2ccc(C)cc2)c2ccccc12 | inconclusive [activator, partial curve, poor fit]
62 | O=C(COc1ccc(Cl)cc1)NC1CCSC1=O (centres undefined) | inconclusive [activator, single point]
63 | Cc1ccc(/C=N/NC(=O)c2ccc(NC(=O)c3ccccc3Cl)cc2)o1 | inactive
64 | C=CCSC1=C(C#N)C(c2ccccc2Cl)C(C(=O)c2cccs2)C(O)(C(F)(F)F)N1 (centres undefined) | inconclusive [activator, single point]
65 | CCCOC(=O)c1ccc(NC(=O)C2C3CCC(C3)C2C(=O)O)cc1 (centres undefined) | inconclusive [activator, single point]
66 | CN(C)S(=O)(=O)N1CCC(Oc2cccc(C(=O)NC3CCCCCC3)c2)CC1 | inconclusive [activator, partial curve, poor fit]
67 | CCOc1ccc(CCNC(=O)C2CC(=O)N(Cc3ccc(OC)cc3)C2)cc1OCC (centres undefined) | inactive
68 | CCOc1ccc(CCN2C(=O)C(=O)N([C@@H](Cc3ccc(O)cc3)CN3CCC[C@@H]3CN3C(=O)C(=O)NC[C@@H]3Cc3ccccc3)C[C@@H]2Cc2ccccc2)cc1 | inconclusive [activator, partial curve, poor fit]
69 | Cc1cc(C)nc(NC(=NCc2ccc3c(c2)OCO3)NC(=O)Nc2ccccc2)n1 | inconclusive [activator, partial curve, poor fit]
